PubChem BioAssay (NCATS)
The shares of active, inactive and inconclusive entries below differ from those in the screen. For some assays here: A potency beside an inconclusive call is a rough fit, not a confirmed value. The source made the active and inactive calls. Unless noted, calls come from the whole dose curve; as a rule, active = well fitted curve in the direction sought with a large enough effect; inconclusive = small, poorly fitted or top-dose-only effect, or another doubt; inactive = no such curve, though single readings can be large; an effect the other way counts as inactive or inconclusive.

Columns and labels:
[1] = system: Zika virus NS2B-NS3 protease (linked construct); test: Primary screen NINDS Rhodamine qHTS for Zika virus inhibitors (AID 1347160); details: activity change, negative = inhibition: at 57.1 µM (top of the series) unless noted; note: potency is the fitted concentration of half-maximal effect; nearly all actives have a fitted effect of over 55% in size
Procedure, shortened: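 Purified linked NS2B-NS3 protease (NS2B hydrophilic domain joined to NS3 protease by flexible linker), 25 nM in 10 mM Tris-HCl pH 8.0, 0.01% Tween 20. Compounds titrated, 15 min preincubation at room temperature; 1.5 microM Rhodamine110 substrate, FITC fluorescence change over 15 min.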

[2] = molecular target: Cytochrome P450 2D6 (Homo sapiens) (UniProt P10635); test: Cytochrome P450 family 2 subfamily D member 6 (CYP2D6) small molecule antagonists: luciferase biochemical (cell-free) qHTS assay (AID 1645840; active = well fitted curve in the direction sought with a large enough effect in the repeat runs; inconclusive = weak or mixed curves; inactive = no such curve, though single readings can be large; an effect the other way counts as inactive or inconclusive; note: potency is the fitted concentration of half-maximal effect; nearly all actives have a fitted effect of over 55% in size)
UniProt P10635, sequence (P10635 whole entry, looked up): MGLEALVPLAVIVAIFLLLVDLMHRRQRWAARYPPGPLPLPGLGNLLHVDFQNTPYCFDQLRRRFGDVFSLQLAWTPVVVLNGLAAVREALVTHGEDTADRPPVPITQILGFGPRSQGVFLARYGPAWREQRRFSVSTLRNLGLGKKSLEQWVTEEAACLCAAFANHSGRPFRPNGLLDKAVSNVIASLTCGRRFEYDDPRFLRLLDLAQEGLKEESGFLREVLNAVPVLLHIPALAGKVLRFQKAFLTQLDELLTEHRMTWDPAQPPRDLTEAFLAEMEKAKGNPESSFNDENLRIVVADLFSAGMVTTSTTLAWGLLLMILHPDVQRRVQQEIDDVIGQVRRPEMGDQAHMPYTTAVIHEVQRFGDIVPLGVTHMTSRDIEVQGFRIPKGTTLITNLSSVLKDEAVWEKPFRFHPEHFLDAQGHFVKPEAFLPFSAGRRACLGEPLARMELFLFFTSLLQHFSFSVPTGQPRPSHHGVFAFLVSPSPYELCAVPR
Procedure, shortened: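 P450-Glo luminescent screen: recombinant CYP2D6 enzyme–proluciferin substrate mix preincubated with compound 10 min at room temperature, then NADPH regeneration added for 1 h at room temperature. Detection reagent added for 20 min; luciferin light read as relative luminescence units.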

[3] = molecular target: Cytochrome P450 2C9 (Homo sapiens) (UniProt P11712); test: Cytochrome P450 family 2 subfamily C member 9 (CYP2C9) small molecule antagonists: luciferase biochemical (cell-free) qHTS assay (AID 1645842; active = well fitted curve in the direction sought with a large enough effect in the repeat runs; inconclusive = weak or mixed curves; inactive = no such curve, though single readings can be large; an effect the other way counts as inactive or inconclusive; note: nearly all actives have a fitted effect of over 55% in size; note: potency is the fitted concentration of half-maximal effect)
UniProt P11712, sequence (P11712 whole entry, looked up): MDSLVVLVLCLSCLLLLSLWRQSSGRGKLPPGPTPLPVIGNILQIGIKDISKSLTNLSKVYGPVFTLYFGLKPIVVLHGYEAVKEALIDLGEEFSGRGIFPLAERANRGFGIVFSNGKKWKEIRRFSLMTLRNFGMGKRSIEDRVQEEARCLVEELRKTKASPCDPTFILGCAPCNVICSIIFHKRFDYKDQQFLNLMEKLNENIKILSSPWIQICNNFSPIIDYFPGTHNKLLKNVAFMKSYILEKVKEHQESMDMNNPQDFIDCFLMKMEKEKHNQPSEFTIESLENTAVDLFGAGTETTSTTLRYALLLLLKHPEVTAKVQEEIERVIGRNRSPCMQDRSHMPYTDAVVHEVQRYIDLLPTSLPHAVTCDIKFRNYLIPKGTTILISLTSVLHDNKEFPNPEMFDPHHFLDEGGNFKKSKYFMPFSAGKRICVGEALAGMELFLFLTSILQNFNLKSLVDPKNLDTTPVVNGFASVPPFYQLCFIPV
Procedure, shortened: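 Luminescence, after 20 min with luciferin detection reagent, reflected CYP2C9 turnover during a 1 h NADPH-driven reaction at 37C. Enzyme-substrate mix contained 0.4% bovine serum albumin and was preincubated with compound 10 min at room temperature.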

[4] = Primary qHTS for inhibitors of nuclear receptor binding SET domain protein 2 (NSD2) in an isogenic RCH-ACV NSD2 p.E1099K mutant (9B) (AID 1645876); note: nearly all actives have a fitted effect of over 70% in size; note: potency is the fitted concentration of half-maximal effect
KB-3-1 = test: Cytotoxic Profiling of Annotated Libraries Using Quantitative High-Throughput Screening (AID 1296008); details: Five cell lines viability, CellTiter-Glo ATP luminescence, 48-72 h; max response: stronger effect = lower value; note: nearly all actives have a fitted effect of over 60% in size; note: potency is the fitted concentration of half-maximal effect; for max response: % is set by controls: 0 for no effect and ±100 for the full control effect
Procedure, shortened: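 Cytotoxicity was measured as CellTiter-Glo ATP luminescence, read after 10 min at room temperature. Compound treatment of the cells lasted 48 or 72 hr at 37 degrees Celsius in a qHTS format.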

OV90 = test: Primary qHTS to identify gynecologic anti-cancer compounds using libraries of approved drugs and bioactive compounds (AID 1345084); details: Gynecologic cancer cell panel viability, ATPlite luminescence, 48 h; series mostly up to 57.5 µM; note: nearly all actives have a fitted effect of over 55% in size; note: potency is the fitted concentration of half-maximal effect; for activity change, negative = cytotoxicity: % is set by controls: 0 for no effect and ±100 for the full control effect
Procedure, shortened: (§1)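 Cell viability after 48 h drug treatment, ATPlite luminescence readout; five doses.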

SKOV3 = test: as above; details: Gynecologic cancer cell panel viability, ATPlite luminescence, 48 h; series mostly up to 57.5 µM
Procedure, shortened: as §1

[5] = P-glycoprotein substrates identified in KB-8-5-11 adenocarcinoma cell line, qHTS therapeutic library screen (AID 1346987); note: % is set by controls: 0 for no effect and ±100 for the full control effect; nearly all actives have a fitted effect of over 65% in size
Procedure, shortened: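 Steps: plate 500 KB-8-5-11 cells/well in DMEM + 10% FCS (colchicine removed); pin compounds in dose-response; incubate 72 h, 37 degree C, 5% CO2; add CellTiter-Glo, 5 min; read luminescence.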

[6] = Primary fluorescence-based thiol-reactive (MSTI) qHTS assay for identification of artifact compounds. (AID 1845221); note: potency is the fitted concentration of half-maximal effect;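 note: thiol-reactive compounds lower the probe fluorescence signal; nearly all actives have a fitted effect of over 65% in size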
Procedure, shortened: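 Probe: MSTI 4 uM, PBS pH 7.4, 2% DMSO. Incubation 1 h, RT, light-protected. Readout fluorescence 525/598 nm.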

HeLa = test: Primary qHTS to identify gynecologic anti-cancer compounds using libraries of approved drugs and bioactive compounds (AID 1345084); details: Gynecologic cancer cell panel viability, ATPlite luminescence, 48 h; activity change, negative = cytotoxicity: at 57.5 µM (top of the series); note: nearly all actives have a fitted effect of over 55% in size; note: potency is the fitted concentration of half-maximal effect; for activity change, negative = cytotoxicity: % is set by controls: 0 for no effect and ±100 for the full control effect
Procedure, shortened: as §1

[7] = Primary redox qHTS assay for identification of artifact compounds. (AID 1845223); details: Amplex Red/HRP redox cycling with DTT, fluorescence; redox activity (% of DA3003): at 53.8 µM (top of the series); note: potency is the fitted concentration of half-maximal effect;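 for redox activity (% of DA3003): 0% = DMSO and 100% = reference compound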
Procedure, shortened: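 Amplex Red (25 uM) and HRP (250 mU/mL) in HBSS, with compounds for 15 min, then 250 uM DTT for 30 min, room temperature, dark. Fluorescence 525/598 nm read; normalized to DMSO and 10 uM DA3003; Hill fit.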

PA-1 = test: Primary qHTS to identify gynecologic anti-cancer compounds using libraries of approved drugs and bioactive compounds (AID 1345084); details: Gynecologic cancer cell panel viability, ATPlite luminescence, 48 h; series mostly up to 57.5 µM; note: nearly all actives have a fitted effect of over 55% in size; note: potency is the fitted concentration of half-maximal effect; for activity change, negative = cytotoxicity: % is set by controls: 0 for no effect and ±100 for the full control effect
Procedure, shortened: as §1

Tov-21-G = test: as above; details: Gynecologic cancer cell panel viability, ATPlite luminescence, 48 h; activity change, negative = cytotoxicity: at 57.5 µM (top of the series) unless noted
Procedure, shortened: as §1

[8] = Primary qHTS for inhibitors of nuclear receptor binding SET domain protein 2 (NSD2) in an RCH-ACV wild type WT cells (2C) (AID 1645877); details: activity change, negative = cell killing: at 44.9 µM (top of the series) unless noted; note: nearly all actives have a fitted effect of over 70% in size
[9] = system: Zika virus NS2B-NS3 protease (unlinked complex); test: Primary screen GU Rhodamine qHTS for Zika virus inhibitors: Unlinked NS2B-NS3 protease assay (AID 1347159); note: potency is the fitted concentration of half-maximal effect; nearly all actives have a fitted effect of over 60% in size
Procedure, shortened: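 Noncovalent NS2B hydrophilic domain–NS3 protease domain complex (25 nM) preincubated 15 min at room temperature with compounds (up to 114 microM) in 10 mM Tris-HCl pH 8.0, 0.01% Tween 20; 1.5 microM Rhodamine110 substrate added, fluorescence change over 15 min fitted to Hill equation.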

Hek293T = test: Primary qHTS to identify gynecologic anti-cancer compounds using libraries of approved drugs and bioactive compounds (AID 1345084); details: Gynecologic cancer cell panel viability, ATPlite luminescence, 48 h, control line for the selectivity index; activity change, negative = cytotoxicity: at 57.5 µM (top of the series) unless noted; note: nearly all actives have a fitted effect of over 55% in size; note: potency is the fitted concentration of half-maximal effect
Procedure, shortened: as §1
Tags give direction and shape of the fitted curve.

O=C(c1ccc(NS(=O)(=O)c2cccc3cccnc23)cc1)N1CCN(CC2CC2)CC1
inconclusive: Potency [1] 39.8 µM [inhibitor, single point] | Potency [2] 37.9 µM [inhibitor, partial curve, poor fit] | Potency [3] 23.9 µM [inhibitor, single point] | Potency (SKOV3) 20 µM [rising, partial curve]
inactive: Potency [4] | max response (KB-3-1) -0.69% | Potency (OV90)

C[C@@H]1CN(Cc2ncccn2)C[C@H]1c1nc2c(cnn2C2CCOCC2)c(=O)[nH]1
inactive: Potency [5] | Potency [4] | Potency [6] | max response (KB-3-1) -1.41% | Potency (OV90)

CC1(C)CC[C@]2(C(=O)O[C@@H]3O[C@H](CO)[C@@H](O)[C@H](O)[C@H]3O)CC[C@]3(C)C(=CCC4[C@@]5(C)C[C@@H](O)[C@H](O)C(C)(C)C5[C@H](O)C[C@]43C)[C@@H]2[C@@H]1O (stereo partly specified)
inactive: Potency [6] | outcome (KB-3-1) | Potency (HeLa)

CC[C@H](CO)Nc1nc(Nc2cccc(-c3ccccn3)c2)c2ncn(C(C)C)c2n1
inconclusive: Potency [2] 37.9 µM [inhibitor, single point] | Potency [4] 23 µM [inhibitor, single point] | Potency [7] 26.7 µM [activator, partial curve] | Potency (KB-3-1) 29.1 µM [inhibitor, single point] | Potency (OV90) 39.8 µM [cytotoxic, single point] | Potency (PA-1) 25.1 µM [cytotoxic, single point] | Potency (Tov-21-G) 28.2 µM [cytotoxic, partial curve, poor fit]

COc1ccc(/C=C/C(=O)O[C@@H]2[C@@H](O)[C@@H](O)[C@H](O[C@H]3[C@@H]4C=CO[C@@H](O[C@@H]5O[C@H](CO)[C@@H](O)[C@H](O)[C@H]5O)[C@@H]4[C@@]4(CO)O[C@@H]34)O[C@H]2C)cc1
inactive: Potency [8] | max response (KB-3-1) 1.26% | Potency (OV90)
inconclusive: Potency [6] 5.61 µM [inhibitor, single point] | Potency [7] 12.6 µM [activator, partial curve, poor fit]

C[C@@H]1O[C@@H](O[C@H]2[C@H](O[C@H]3[C@H](O[C@H]4CC[C@@]5(C)C(CC[C@]6(C)C5CC=C5[C@@H]7CC(C)(C)C[C@@H](O)[C@]7(C)CC[C@]56C)C4(C)C)O[C@H](C(=O)O)[C@@H](O)[C@@H]3O)O[C@H](C(=O)O)[C@H](O)[C@@H]2O)[C@H](O)[C@H](O)[C@H]1O (stereo partly specified)
inconclusive: Potency [9] 3.16 µM [inhibitor, full curve] | Potency [1] 1.39 µM [inhibitor, partial curve]
inactive: outcome [8] inactive [at 9.23 µM] | outcome (KB-3-1) | activity change, negative = cytotoxicity (PA-1) 12.6% [at 11.6 µM]

CNc1cc2[nH]c(=O)n(-c3ccc(NC(=O)NS(=O)(=O)c4ccc(Cl)s4)cc3)c(=O)c2cc1F
inactive: Potency [3] | Potency [8] | Potency [7] | Potency (Hek293T)
inconclusive: Potency (KB-3-1) 29.1 µM [inhibitor, single point]

C=C(C)C1CC[C@]2(C(=O)O)CC[C@]3(C(=O)O)[C@H](CCC4[C@@]5(C)CC[C@H](O)C(C)(C)C5CC[C@]43C)C12 (stereo partly specified)
inactive: Potency [8] | max response (KB-3-1) -4.13% | Potency (Hek293T) | Potency (Tov-21-G)
